# Assay results published in PMC4336329 (PLoS ONE, 2015).
# Among all 310,000 compounds or so, about 14,000 (4.5%) showed an effect of 50% or more. The effect is printed as a negative number. The list shows a part of the results.
# Target: human ether-à-go-go-related gene (hERG) potassium channel (human, UniProt Q12809)
# Experiment: primary screen, population patch clamp on CHO cells stably expressing hERG
# 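Also: peak tail current of the secondary pulse compared with the same well before compound.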
# Chain of human ether-à-go-go-related gene (hERG) potassium channel (Q12809 whole entry, looked up): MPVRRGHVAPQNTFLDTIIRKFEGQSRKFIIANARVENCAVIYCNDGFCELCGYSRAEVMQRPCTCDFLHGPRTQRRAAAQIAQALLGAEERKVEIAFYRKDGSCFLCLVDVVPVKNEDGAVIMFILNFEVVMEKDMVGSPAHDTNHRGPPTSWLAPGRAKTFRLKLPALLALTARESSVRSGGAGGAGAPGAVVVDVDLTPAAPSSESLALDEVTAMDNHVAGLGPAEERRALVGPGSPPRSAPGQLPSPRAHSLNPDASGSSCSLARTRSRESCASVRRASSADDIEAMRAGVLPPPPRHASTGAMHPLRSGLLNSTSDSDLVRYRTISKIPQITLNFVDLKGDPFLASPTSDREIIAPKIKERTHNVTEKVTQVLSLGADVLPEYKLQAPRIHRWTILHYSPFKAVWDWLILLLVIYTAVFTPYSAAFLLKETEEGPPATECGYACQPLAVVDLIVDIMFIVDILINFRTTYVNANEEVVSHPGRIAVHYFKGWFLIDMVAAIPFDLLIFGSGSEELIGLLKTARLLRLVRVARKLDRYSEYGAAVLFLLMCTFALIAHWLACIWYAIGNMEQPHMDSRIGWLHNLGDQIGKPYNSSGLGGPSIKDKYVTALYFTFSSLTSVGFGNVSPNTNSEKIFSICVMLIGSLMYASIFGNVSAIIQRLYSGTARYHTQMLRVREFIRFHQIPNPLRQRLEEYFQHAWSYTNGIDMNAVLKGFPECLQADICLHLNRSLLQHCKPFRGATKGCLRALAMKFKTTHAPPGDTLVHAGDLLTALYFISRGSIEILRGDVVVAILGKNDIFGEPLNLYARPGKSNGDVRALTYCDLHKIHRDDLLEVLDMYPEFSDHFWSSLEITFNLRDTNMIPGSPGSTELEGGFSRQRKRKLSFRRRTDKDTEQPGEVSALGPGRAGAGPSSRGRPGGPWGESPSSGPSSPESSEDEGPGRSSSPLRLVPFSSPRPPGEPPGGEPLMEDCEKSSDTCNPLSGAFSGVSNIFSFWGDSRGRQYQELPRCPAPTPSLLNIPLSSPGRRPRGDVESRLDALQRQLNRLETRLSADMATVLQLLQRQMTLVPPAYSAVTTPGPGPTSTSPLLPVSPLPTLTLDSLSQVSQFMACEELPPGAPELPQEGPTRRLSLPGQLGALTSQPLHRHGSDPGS
row,SMILES,"hERG current change (%, negative = inhibition) at 10uM [%]"
1,CCCN1CNC(=S)N(c2cc(C)ccc2C)C1,4.56
2,COc1ccc(N2CCN(C(=O)CCS(=O)(=O)c3ccc(OC)cc3)CC2)cc1,-19.3
3,CCOC(=O)c1c(C)c(C(=O)Nc2ccc3c(c2)OCO3)c(C)n1C,0.63
4,CCN1CCCC1CNC(=O)c1ccc2c(c1)N(Cc1ccccc1F)C(=O)c1ccccc1S2(=O)=O (centres unmarked),-16.7
5,Cc1ccc(S(=O)(=O)NCC2CCC(C(=O)NCCCN3CCCC3=O)CC2)cc1 (centres unmarked),15.8
6,CN(C)S(=O)(=O)N1CCC(Oc2cccc(C(=O)NCCC3=CCCCC3)c2)CC1,-2.44
7,CCOC(=O)C1=C(COC(=O)[C@@H]2CCCN2S(=O)(=O)c2ccc(C)cc2)NC(=O)NC1C (some centres unmarked),6.58
8,CC(C)C(NC(=O)c1ccc(F)cc1)C(=O)NCC1CCCO1 (centres unmarked),5.5
9,Cc1ccc(C(=O)NCC(=O)N/N=C/c2cccs2)cc1[N+](=O)[O-],-6.65
10,Cc1ccc(/C=N/NC(=O)CNC(=O)COc2ccccc2)cc1,0.0545
11,O=C(CN1C(=O)c2ccccc2C1=O)Nc1ccc(S(=O)(=O)NCC2CCCO2)cc1 (centres unmarked),10.7
12,COC(=O)COc1cccc2c(=O)n(CC(=O)NCCc3ccc(OC)c(OC)c3)ccc12,2.88
13,CC1(C)C2CCC1(CS(=O)(=O)NC1CCCC1)C(=O)C2 (centres unmarked),2.14
14,CCCS(=O)(=O)N1CCN(C(=O)c2ccc(-c3ccccc3)cc2)CC1,-30.2
15,CCOc1ccc(C(=O)OCC(=O)Nc2ccc3c(c2)OCCO3)cc1OC,6.78
16,CCOC(=O)c1cc(-c2cccnc2)nn1-c1ccccc1C,-10.5
17,COc1ccccc1N1C(=O)C2C(C(=O)c3ccccc3)=NN(c3ccc(C)cc3)C2C1=O (centres unmarked),-31.9
18,NC(N)=NC(=O)c1nc(Cl)c(N2CCCCCC2)nc1N,-58.6
19,COC(=O)c1cnc(N2CCCN(S(=O)(=O)c3ccccc3)CC2)nc1C(F)(F)F,-8.54
20,CCCCn1c(=O)c(C(=O)Nc2ccccc2C)c(O)c2ccccc21,18.3
21,CCCN(CCC)S(=O)(=O)c1ccc(C(=O)N2CCC(=O)c3ccccc32)cc1,-49.6
22,CC(NS(=O)(=O)c1ccc2c(c1)OCCCO2)C(=O)O (centres unmarked),11.5

row,SMILES,"hERG current change (%, negative = inhibition) at 10uM [%]"
1,CCOc1ccc(S(=O)(=O)N(CC)CC(=O)NC2CCS(=O)(=O)C2)cc1 (centres unmarked),5.66
2,COc1cccc(CN(C)Cc2nc3cc(C(F)(F)F)ccc3c(=O)[nH]2)c1,-3.19
3,COc1ccc(/C=N/NC(=O)Cn2cnc3ccccc3c2=O)cc1OC,-6.77
4,COc1ccc(/C=N\NC(=O)c2sc(N)nc2C)cc1OC,-1.23
5,N#Cc1c(F)cccc1NCc1cccnc1,23.1
6,COc1ccc(-c2csc(NC(=O)c3cccc(N4C(=O)CCC4=O)c3)n2)cc1OC,-1.68
7,O=C(C1CC1)N1CCc2cc(S(=O)(=O)N3CCCc4ccccc43)ccc21,9.22
8,COc1ccc(S(=O)(=O)N(CC(=O)NCc2cccnc2)Cc2ccccc2)cc1,-76.5
9,CC(=O)Nc1ccc(N2CCC(C)CC2)c([N+](=O)[O-])c1,2.58
10,Cc1ccccc1CCNC(=O)C1CCC(=O)N(C2CCCCCC2)C1 (centres unmarked),-7.44
11,COc1cc(NC(=O)c2ccc(COCC(F)(F)F)o2)cc(OC)c1OC,-16.8
12,CCOc1cc(/C=C/C(=O)c2ccc3c(c2)OCCO3)ccc1OCC(=O)N(C)C,0.478
13,CCOC(=O)CN=C/C(C(=O)Nc1nccs1)=C(/C)O,2.98
14,O=C(Nc1ccc(F)cc1)NC1CCN(Cc2c(F)cccc2Cl)CC1,-11.2
15,CN(C(=O)Nc1ccccc1)C1CCCc2ccccc21 (centres unmarked),-6.21
16,Cc1ccc(C(=O)NCCC2=CCCCC2)cc1S(=O)(=O)N1CCOCC1,-21.2
17,COc1ccc(C(=O)O/N=C(\N)Cc2ccc(Cl)c(Cl)c2)cc1OC,-20.6
18,Cc1ccc(NC(=S)NC2CCSc3ccccc32)cc1 (centres unmarked),16.5
19,Cc1c(C(=O)NCc2ccccn2)oc2ccc(S(=O)(=O)N3CCC4(CC3)OCCO4)cc12,-5.41
20,Cc1cccc(C)c1OCc1nnc(SCC(=O)Nc2nccs2)o1,-12.5
21,CC(C)(C)C(=O)Cn1c(=O)n(-c2ccc(F)cc2F)c(=O)c2sccc21,4.28
22,COc1ccc(C2=NN(C(=O)c3cccnc3)C(c3ccccc3)C2)cc1 (centres unmarked),-5.13
